The values that follow come from publication PMC7819943, “Rice protein-binding microarrays: a tool to detect cis-acting elements near promoter regions in rice”.

This is one part of the list.

The target of the experiment is T1, OsWOX13 (Oryza sativa, UniProt Q5QMM3 1-267).
T1 sequence: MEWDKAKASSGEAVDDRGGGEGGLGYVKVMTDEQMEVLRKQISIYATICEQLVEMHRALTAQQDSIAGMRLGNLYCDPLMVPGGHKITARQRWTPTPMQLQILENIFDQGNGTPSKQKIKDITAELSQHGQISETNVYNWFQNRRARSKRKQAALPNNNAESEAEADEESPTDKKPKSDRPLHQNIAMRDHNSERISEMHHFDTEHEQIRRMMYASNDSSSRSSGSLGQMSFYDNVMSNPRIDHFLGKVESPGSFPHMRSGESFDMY
The experiment in a line: protein-binding microarray (RPBM); PBS, 2% BSA, 51.3 ng/ul salmon testes DNA, 50 uM zinc acetate, 200 nM TF, 25 C, 1 h; high values mean tight binding. The conditions noted are these: protein: recombinant; tags: N-terminal polyhistidine and DsRed monomer fusion (pET32a); label: CyDye5-dUTP incorporated in the synthesized complementary strand; 3' TTTTT single-stranded linker to array surface; dsDNA, one strand shown. In short, it runs like this:
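Binding signal is defined as the fluorescence intensity of each feature in arbitrary units, read on an Axon 4000B scanner. Transcription factors with N-terminal polyhistidine and DsRed fusions came from E. coli BL21-CodonPlus and were purified on Ni–NTA. They were incubated at 200 nM for 1 h at 25 °C on a custom Agilent array that had been made double-stranded with Cy5-dUTP, with 50 µM zinc acetate present, and the array was washed.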
Regarding “ATACACCAGTTGATTATAATGACAGTGATATTATGGTGGACGGAGTCACCTAGTGCAG”, the binding signal is 17800 fluorescence intensity (a.u.).

On to “TTACGTTCCTTGATTCAATCACCATAATTCGTCCTACTTTCGGAGTCACCTAGTGCAG”, for which the binding signal is 12100 fluorescence intensity (a.u.).

Consider “TTCCTAAATATACAAATTTTCAAATTTTCCGTCGTGTCGTCGGAGTCACCTAGTGCAG”, for which the binding signal was 3680 fluorescence intensity (a.u.).

As to “TACATCGCGTAATCAATTGAATGTTTTCTTTTATGGAGATCGGAGTCACCTAGTGCAG”, the binding signal was 6280 fluorescence intensity (a.u.).

On to “TGGCAATCACAGGATTAATGCTCATTATATTTGGGAATACCGGAGTCACCTAGTGCAG”, for which the binding signal is 26000 fluorescence intensity (a.u.).

Regarding “ATCTCATAAATTTGTCATCCTTAAGAGCTTGGAACAGTTACGGAGTCACCTAGTGCAG”, the binding signal was 3610 fluorescence intensity (a.u.).

Regarding “CACTACCCTGATCTGATTGAAATGTCGGGTTCAACCCGATCGGAGTCACCTAGTGCAG”, the binding signal was 22100 fluorescence intensity (a.u.).

In the case of “ACTTGATTATTGAAGGAGGTAGTACTGCCTGCTGACTACTCGGAGTCACCTAGTGCAG”, the binding signal was 33700 fluorescence intensity (a.u.).

“TAATTGTACAGATTGCGACTAATTTGCGAGACAAATCTTTCGGAGTCACCTAGTGCAG”: the binding signal is 10900 fluorescence intensity (a.u.).

As to “GGTCTTAATTAATTACTAACTAATATATGTTGCCTCTCCTCGGAGTCACCTAGTGCAG”, the binding signal is 42800 fluorescence intensity (a.u.).

“ACAAAATTGTAAAGTATTAACGAAGGCTAACCGGACGGTGCGGAGTCACCTAGTGCAG”: the binding signal is 3360 fluorescence intensity (a.u.).

In the case of “ATGGACAGATTGAAACATTAAGGATTAAATTGAGTCTCAGCGGAGTCACCTAGTGCAG”, the binding signal is 32800 fluorescence intensity (a.u.).

For the sequence “CTGCTGATGGATGCGTATAATAAGGATGTAAGTGGCTAACCGGAGTCACCTAGTGCAG”, the binding signal is 8300 fluorescence intensity (a.u.).

For “ATATATTGACAAGGCAATGACATAGATAGCTAGACATATCCGGAGTCACCTAGTGCAG”, the binding signal is 16200 fluorescence intensity (a.u.).

Turning to “TCTGTTGATTGGTCCATCATATTTTATGGAATGTGCCAATCGGAGTCACCTAGTGCAG”, the binding signal was 49400 fluorescence intensity (a.u.).

Turning to “TTTTCGTGAATTTGATGATTACGATTTTACGAATGCTGACCGGAGTCACCTAGTGCAG”, the binding signal is 8750 fluorescence intensity (a.u.).

Turning to “TTTCAGATTGGAAATCTCGTGCTTGTTGTTAAAACACCTGCGGAGTCACCTAGTGCAG”, the binding signal was 22000 fluorescence intensity (a.u.).

“TTTGAATGTGATATGATGTGATGAAAAGTTAAAAGTTTGGCGGAGTCACCTAGTGCAG”: the binding signal is 3430 fluorescence intensity (a.u.).

For the sequence “TTTGATGAACAAACAGAGATATCACATTGTACTATGGAATCGGAGTCACCTAGTGCAG”, the binding signal was 5530 fluorescence intensity (a.u.).

With “GGTCATCGTAATCAGTTTATTTGCTCGGAGACAAATCACACGGAGTCACCTAGTGCAG”, the binding signal was 5440 fluorescence intensity (a.u.).

As for “ATATATATATATATATATATATATAAGGCTTGTCTTCTGCCGGAGTCACCTAGTGCAG”, the binding signal was 22100 fluorescence intensity (a.u.).

“CCTAATTTGGAACCTTAACCGTGGGATTTGACTAAAATAACGGAGTCACCTAGTGCAG”: the binding signal is 8390 fluorescence intensity (a.u.).

For the sequence “AATATTTATGTTAATTATATATAGCTAATTATGATAATAGCGGAGTCACCTAGTGCAG”, the binding signal is 18800 fluorescence intensity (a.u.).

Consider “AATCCAATTCCCACAATTAAGTGTTCTTAACTCACAAACTCGGAGTCACCTAGTGCAG”, for which the binding signal was 4040 fluorescence intensity (a.u.).

With “TCCCTGCATTAACTGATCAACACAACCGAGATGTTTGACACGGAGTCACCTAGTGCAG”, the binding signal was 3510 fluorescence intensity (a.u.).

As for “GATTGATTTTCTGATGTTTCCCCATGAGTCCATGACATGACGGAGTCACCTAGTGCAG”, the binding signal was 8870 fluorescence intensity (a.u.).

Turning to “AAAAGGGTTTGATTTCTATCAATTCCTTTAAAATCTATGGCGGAGTCACCTAGTGCAG”, the binding signal was 3320 fluorescence intensity (a.u.).

Take “CAATCACATTAAATTACGAAAATTAATTCTCTGACCTGAGCGGAGTCACCTAGTGCAG”: the binding signal is 17100 fluorescence intensity (a.u.).

For “CCAATTTATGATCCAATCACACTGTTGTATTCATTATAATCGGAGTCACCTAGTGCAG”, the binding signal is 10700 fluorescence intensity (a.u.).

“TGCAGGTAAACAAATGATTGATATTATTCGATCTCTACTTCGGAGTCACCTAGTGCAG”: the binding signal was 32000 fluorescence intensity (a.u.).

For “GGGTGATTTGAAGGACACTTTCCTGTTTAAGAAGTTAACACGGAGTCACCTAGTGCAG”, the binding signal is 26700 fluorescence intensity (a.u.).

In the case of “GATATTATACCAATTAATTATTGGACTTCTGGAGGTAAAACGGAGTCACCTAGTGCAG”, the binding signal is 11800 fluorescence intensity (a.u.).

Consider “TCAGTAATATAGTAATTACCGTATTTCTAAATATATTATTCGGAGTCACCTAGTGCAG”, for which the binding signal is 4630 fluorescence intensity (a.u.).

On to “CTAACAAGTACACCTTGATTGAAGTGGATTTTATTATTACCGGAGTCACCTAGTGCAG”, for which the binding signal was 9250 fluorescence intensity (a.u.).

Take “TGAGACGAATGGAGTAATTATGTTTCTTCACTAATTAAGCCGGAGTCACCTAGTGCAG”: the binding signal is 5150 fluorescence intensity (a.u.).

For “CGAAAGCAGTTAACTTAACTTTACCCCGTTCCCCTGCATTCGGAGTCACCTAGTGCAG”, the binding signal was 3200 fluorescence intensity (a.u.).

As for “AATCAACTTTAAATTTAACTTTGACAATTTAAATTCTGTACGGAGTCACCTAGTGCAG”, the binding signal is 12500 fluorescence intensity (a.u.).

Turning to “TGCTTCTCTTTCGGTGATTGGGTACTACGGGAAGGCGATCCGGAGTCACCTAGTGCAG”, the binding signal was 7610 fluorescence intensity (a.u.).

Consider “CTTATTAACTCAGAGTCAATTTCTTCGATTGAACATATTGCGGAGTCACCTAGTGCAG”, for which the binding signal was 6190 fluorescence intensity (a.u.).

Consider “TATGTCACATTCTAAATTGATAGGAGGGTTTGACCATATACGGAGTCACCTAGTGCAG”, for which the binding signal is 11300 fluorescence intensity (a.u.).

Take “GGTGAATCTACAATGAGATAATTACTACAAATAGACACTGCGGAGTCACCTAGTGCAG”: the binding signal was 5140 fluorescence intensity (a.u.).

As for “TTGATTGCGAATGATTGGAGCTGGTTGCTGTTGCTAGATCCGGAGTCACCTAGTGCAG”, the binding signal is 57800 fluorescence intensity (a.u.).

In the case of “AACCAGTAACTTTGGTTAAATTTATAGATTAATTTAGCAACGGAGTCACCTAGTGCAG”, the binding signal was 4560 fluorescence intensity (a.u.).

With “CATAGACGGATTGATGCAAGAAAACCGTTGGGGCTAAAGCCGGAGTCACCTAGTGCAG”, the binding signal is 9430 fluorescence intensity (a.u.).

With “TAACTCTTTGATTATAATGATGATTATAATGATTATCTTGCGGAGTCACCTAGTGCAG”, the binding signal was 40200 fluorescence intensity (a.u.).

“CAGCCTACCTATCTCCTTAATTATAACGGGAGGGAAACCCCGGAGTCACCTAGTGCAG”: the binding signal was 3180 fluorescence intensity (a.u.).

Take “TTCCACTCAGATCACGGCCGTTGATTTACTTTCGACGGTCCGGAGTCACCTAGTGCAG”: the binding signal is 3170 fluorescence intensity (a.u.).

For the sequence “TAAAATTTACTTTACTAATAATTACCATGATACCATCTTTCGGAGTCACCTAGTGCAG”, the binding signal was 8320 fluorescence intensity (a.u.).

In the case of “TCACTTGATTAGGGTAGCCGCATCTCTTAGAAAGATAAATCGGAGTCACCTAGTGCAG”, the binding signal is 22600 fluorescence intensity (a.u.).

“ATGATTGATGGTACGAATGATGGCGGCAGTAGTTTCTCTCCGGAGTCACCTAGTGCAG”: the binding signal is 50100 fluorescence intensity (a.u.).

For the sequence “TATACATTATTAAATTTAATAAAACTAATTTAATATGTTGCGGAGTCACCTAGTGCAG”, the binding signal is 24900 fluorescence intensity (a.u.).

Turning to “CATGATTTTCTAAAATATATATATATCCATGCGAACTTCGCGGAGTCACCTAGTGCAG”, the binding signal was 20900 fluorescence intensity (a.u.).

For “ATTCGATAATATTTGATTGTGTTTTCATATCTGAGGTTTTCGGAGTCACCTAGTGCAG”, the binding signal was 5820 fluorescence intensity (a.u.).

As to “ATAACTATAATTATATGTTGTTTAGCATATATTAAGGTTTCGGAGTCACCTAGTGCAG”, the binding signal was 16400 fluorescence intensity (a.u.).
